Laboratory results from article PMC10269652.
Results are given in words; binding and its absence hold for the method and conditions named. In cells and extracts the contact can be indirect. Some results given as binding are weak or reduced against the parent protein; the word gives no strength. Where a sequence is shown, tags or fusion partners need not be part of it.

T1: C-terminal His-tagged PBP2 (E. coli) (UniProt P0AD65)
T1 sequence: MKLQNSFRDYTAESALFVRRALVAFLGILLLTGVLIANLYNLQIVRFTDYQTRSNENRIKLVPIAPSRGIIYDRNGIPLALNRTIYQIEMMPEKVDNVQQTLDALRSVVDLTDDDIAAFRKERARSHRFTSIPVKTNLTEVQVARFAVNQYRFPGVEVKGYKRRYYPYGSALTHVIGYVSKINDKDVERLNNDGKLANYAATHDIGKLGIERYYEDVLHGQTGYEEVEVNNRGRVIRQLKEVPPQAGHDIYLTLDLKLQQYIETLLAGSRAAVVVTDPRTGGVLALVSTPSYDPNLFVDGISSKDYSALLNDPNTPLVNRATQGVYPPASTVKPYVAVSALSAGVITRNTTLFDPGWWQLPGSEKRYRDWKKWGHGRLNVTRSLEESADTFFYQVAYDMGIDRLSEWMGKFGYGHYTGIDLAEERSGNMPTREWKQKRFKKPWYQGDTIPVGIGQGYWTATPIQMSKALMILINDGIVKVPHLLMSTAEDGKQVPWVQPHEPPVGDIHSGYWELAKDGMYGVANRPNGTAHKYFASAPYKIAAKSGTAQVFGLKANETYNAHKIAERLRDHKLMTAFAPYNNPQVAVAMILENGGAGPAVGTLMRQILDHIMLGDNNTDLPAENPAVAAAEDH

T2: C-terminal His-tagged PBP1a (E. coli) (UniProt P02918)
T2 sequence: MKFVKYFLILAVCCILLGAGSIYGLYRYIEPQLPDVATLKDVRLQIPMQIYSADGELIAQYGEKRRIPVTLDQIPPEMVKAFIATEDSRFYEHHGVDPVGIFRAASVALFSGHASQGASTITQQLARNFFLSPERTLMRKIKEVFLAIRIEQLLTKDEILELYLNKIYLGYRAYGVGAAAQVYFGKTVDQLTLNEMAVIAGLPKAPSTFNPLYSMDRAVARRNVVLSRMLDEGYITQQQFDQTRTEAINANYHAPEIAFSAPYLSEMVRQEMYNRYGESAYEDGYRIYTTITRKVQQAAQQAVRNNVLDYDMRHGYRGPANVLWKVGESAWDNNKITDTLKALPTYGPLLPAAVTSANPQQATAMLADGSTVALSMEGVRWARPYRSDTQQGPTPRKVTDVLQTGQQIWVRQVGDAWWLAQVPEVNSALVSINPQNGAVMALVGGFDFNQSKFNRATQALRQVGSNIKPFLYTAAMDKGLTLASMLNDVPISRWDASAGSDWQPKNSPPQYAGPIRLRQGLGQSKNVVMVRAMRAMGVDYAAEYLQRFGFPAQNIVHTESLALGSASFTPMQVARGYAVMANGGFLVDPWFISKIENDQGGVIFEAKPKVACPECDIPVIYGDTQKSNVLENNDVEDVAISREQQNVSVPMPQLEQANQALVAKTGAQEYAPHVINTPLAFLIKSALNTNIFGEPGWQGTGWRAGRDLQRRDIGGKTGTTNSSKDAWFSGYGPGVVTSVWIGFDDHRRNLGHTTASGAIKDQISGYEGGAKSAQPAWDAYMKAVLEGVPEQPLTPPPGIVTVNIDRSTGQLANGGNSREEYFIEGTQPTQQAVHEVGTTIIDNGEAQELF

T3: C-terminal His-tagged PBP3 (E. coli) (UniProt P0AD68)
T3 sequence: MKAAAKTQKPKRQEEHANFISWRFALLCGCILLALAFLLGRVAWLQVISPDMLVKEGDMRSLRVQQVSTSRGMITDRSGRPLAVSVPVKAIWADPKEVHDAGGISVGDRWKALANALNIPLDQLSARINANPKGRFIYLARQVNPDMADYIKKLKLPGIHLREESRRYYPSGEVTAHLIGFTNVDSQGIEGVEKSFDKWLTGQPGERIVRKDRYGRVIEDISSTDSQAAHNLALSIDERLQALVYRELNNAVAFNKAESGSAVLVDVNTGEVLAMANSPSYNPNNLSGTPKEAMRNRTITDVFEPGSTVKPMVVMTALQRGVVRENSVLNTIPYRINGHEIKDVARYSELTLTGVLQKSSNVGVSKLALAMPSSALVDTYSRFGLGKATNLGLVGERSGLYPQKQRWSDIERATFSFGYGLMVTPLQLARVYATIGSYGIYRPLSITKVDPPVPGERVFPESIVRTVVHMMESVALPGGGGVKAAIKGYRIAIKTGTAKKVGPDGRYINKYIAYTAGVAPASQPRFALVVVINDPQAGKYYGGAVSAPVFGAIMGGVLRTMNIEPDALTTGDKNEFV

T4: C-terminal His-tagged PBP1b (E. coli) (UniProt P02919)
T4 sequence: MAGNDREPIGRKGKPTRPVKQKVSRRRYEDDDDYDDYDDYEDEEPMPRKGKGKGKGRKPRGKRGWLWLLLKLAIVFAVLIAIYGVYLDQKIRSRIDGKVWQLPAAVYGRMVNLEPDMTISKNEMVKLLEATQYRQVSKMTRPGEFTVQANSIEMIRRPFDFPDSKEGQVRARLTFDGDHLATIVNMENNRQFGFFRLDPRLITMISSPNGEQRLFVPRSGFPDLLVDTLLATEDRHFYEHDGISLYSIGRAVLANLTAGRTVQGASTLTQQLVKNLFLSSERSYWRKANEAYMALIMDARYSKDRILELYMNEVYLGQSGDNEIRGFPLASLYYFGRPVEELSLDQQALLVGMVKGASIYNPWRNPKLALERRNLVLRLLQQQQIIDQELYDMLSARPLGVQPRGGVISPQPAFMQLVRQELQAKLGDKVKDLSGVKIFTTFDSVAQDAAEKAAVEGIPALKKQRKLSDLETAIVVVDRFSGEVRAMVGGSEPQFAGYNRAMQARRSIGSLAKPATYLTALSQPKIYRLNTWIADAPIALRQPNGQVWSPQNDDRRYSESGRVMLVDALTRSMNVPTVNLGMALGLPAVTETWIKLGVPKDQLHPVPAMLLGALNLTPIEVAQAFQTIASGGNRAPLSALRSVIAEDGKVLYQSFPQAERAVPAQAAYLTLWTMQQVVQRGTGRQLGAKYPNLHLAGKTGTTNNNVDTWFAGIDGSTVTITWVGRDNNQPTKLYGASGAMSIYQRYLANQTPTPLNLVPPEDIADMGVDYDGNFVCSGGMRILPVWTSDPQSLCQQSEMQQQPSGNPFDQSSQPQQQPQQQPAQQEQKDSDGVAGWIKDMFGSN


Tests used:
Experiment in all cases: pull-down; C-terminal His-tagged PBP expressed from pBAD (1% arabinose, 30°C, 3 h) in MG1655 strains with chromosomal Flag-tagged DD-CPase; supernatant of disrupted cells on Talon metal affinity resin; binding buffer (50 mM Tris-HCl pH 8.0, 200 mM NaCl) without 1% n-dodecyl-β-D-maltoside; eluate blotted with anti-Flag; nontagged PBPs as control
[1] = molecular target: T1, C-terminal His-tagged PBP2 (E. coli)
[2] = molecular target: T2, C-terminal His-tagged PBP1a (E. coli)
[3] = molecular target: T3, C-terminal His-tagged PBP3 (E. coli)
[4] = molecular target: T4, C-terminal His-tagged PBP1b (E. coli)

| binding [1] | binding [2] | binding [3] | binding [4] | Binder |
| --- | --- | --- | --- | --- |
| binds | binds | binds | binds | DacA-Flag (chromosomal DacA with a 3xFlag, strain MG1655 DacA-Flag) (enzyme, UniProt P0AEB2 30-403) DDLNIKTMIPGVPQIDAESYILIDYNSGKVLAEQNADVRRDPASLTKMMTSYVIGQAMKAGKFKETDLVTIGNDAWATGNPVFKGSSLMFLKPGMQVPVSQLIRGINLQSGNDACVAMADFAAGSQDAFVGLMNSYVNALGLKNTHFQTVHGLDADGQYSSARDMALIGQALIRDVPNEYSIYKEKEFTFNGIRQLNRNGLLWDNSLNVDGIKTGHTDKAGYNLVASATEGQMRLISAVMGGRTFKGREAESKKLLTWGFRFFETVNPLKVGKEFASEPVWFGDSDRASLGVDKDVYLTIPRGRMKDLKASYVLNSSELHAPLQKNQVVGTINFQLDGKTIEQRPLVVLQEIPEGNFFGKIIDYIKLMFHHWFG |
| binds | no binding | no binding | no binding | DacC(ΔC)-Flag (chromosomal DacC without its C-terminal membrane-anchoring domain, strain MG1655 DacC(ΔC)-Flag) (domain or fragment, UniProt P08506 28-378) AEQTVEAPSVDARAWILMDYASGKVLAEGNADEKLDPASLTKIMTSYVVGQALKADKIKLTDMVTVGKDAWATGNPALRGSSVMFLKPGDQVSVADLNKGVIIQSGNDACIALADYVAGSQESFIGLMNGYAKKLGLTNTTFQTVHGLDAPGQFSTARDMALLGKALIHDVPEEYAIHKEKEFTFNKIRQPNRNRLLWSSNLNVDGMKTGTTAGAGYNLVASATQGDMRLISVVLGAKTDRIRFNESEKLLTWGFRFFETVTPIKPDATFVTQRVWFGDKSEVNLGAGEAGSVTIPRGQLKNLKASYTLTEPQLTAPLKKGQVVGTIDFQLNGKSIEQRPLIVMENVEEGG |
| binds | binds | binds | binds | DacC-Flag (chromosomal DacC with a 3xFlag at its C terminus, strain MG1655 DacC-Flag) (enzyme, UniProt P08506 28-400) AEQTVEAPSVDARAWILMDYASGKVLAEGNADEKLDPASLTKIMTSYVVGQALKADKIKLTDMVTVGKDAWATGNPALRGSSVMFLKPGDQVSVADLNKGVIIQSGNDACIALADYVAGSQESFIGLMNGYAKKLGLTNTTFQTVHGLDAPGQFSTARDMALLGKALIHDVPEEYAIHKEKEFTFNKIRQPNRNRLLWSSNLNVDGMKTGTTAGAGYNLVASATQGDMRLISVVLGAKTDRIRFNESEKLLTWGFRFFETVTPIKPDATFVTQRVWFGDKSEVNLGAGEAGSVTIPRGQLKNLKASYTLTEPQLTAPLKKGQVVGTIDFQLNGKSIEQRPLIVMENVEEGGFFGRVWDFVMMKFHQWFGSWFS |
